In PubChem BioAssay AID485360 (National Center for Advancing Translational Sciences (NCATS), 2010):
Among all 230,000 compounds or so, about 1,500 (0.65%) were called active. The inconclusive results got no clear call from the source; some entries with a clear call stand among them for comparison. Calls come from the whole dose curve; as a rule, active = well fitted inhibition curve with a large enough effect; inconclusive = small, poorly fitted or top-dose-only effect; inactive = no such curve, though single readings can be large or run the other way. Where the call is inconclusive, the potency comes from a doubtful curve fit.

target: Lethal(3)malignant brain tumor-like protein 1 (Homo sapiens) (UniProt Q9Y468); assay: qHTS Assay for the Inhibitors of L3MBTL1; settings: AlphaScreen L3MBTL1–H3K9me1 peptide binding; series mostly up to 57.1 µM; note: nearly all actives have a fitted effect of over 60% in size
Sequence of UniProt Q9Y468 (Q9Y468 whole entry, looked up): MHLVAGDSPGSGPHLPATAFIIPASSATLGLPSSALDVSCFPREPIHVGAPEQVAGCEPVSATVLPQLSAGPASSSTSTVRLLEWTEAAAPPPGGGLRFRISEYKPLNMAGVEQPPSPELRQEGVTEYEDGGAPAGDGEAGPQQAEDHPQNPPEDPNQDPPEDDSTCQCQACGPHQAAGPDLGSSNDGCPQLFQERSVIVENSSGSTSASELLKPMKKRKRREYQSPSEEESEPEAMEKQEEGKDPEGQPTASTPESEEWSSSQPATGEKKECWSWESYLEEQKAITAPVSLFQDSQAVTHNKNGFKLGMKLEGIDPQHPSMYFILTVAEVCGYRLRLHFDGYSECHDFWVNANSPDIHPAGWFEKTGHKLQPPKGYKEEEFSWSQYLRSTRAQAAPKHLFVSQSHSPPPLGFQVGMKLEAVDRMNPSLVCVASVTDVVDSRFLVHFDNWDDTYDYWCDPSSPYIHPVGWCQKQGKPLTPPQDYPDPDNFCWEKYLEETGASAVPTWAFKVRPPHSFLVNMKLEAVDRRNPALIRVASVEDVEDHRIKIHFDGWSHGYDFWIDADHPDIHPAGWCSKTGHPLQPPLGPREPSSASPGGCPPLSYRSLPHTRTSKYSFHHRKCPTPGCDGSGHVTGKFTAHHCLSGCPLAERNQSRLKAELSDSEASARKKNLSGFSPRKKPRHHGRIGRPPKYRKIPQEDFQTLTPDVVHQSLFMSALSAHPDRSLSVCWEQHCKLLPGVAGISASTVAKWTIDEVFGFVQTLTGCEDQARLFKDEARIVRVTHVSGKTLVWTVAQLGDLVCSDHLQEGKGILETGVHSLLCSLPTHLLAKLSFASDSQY
How it was run: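 L3MBTL1 (50 nM) pre-complexed 30 min with biotinylated H3(1-15)K9me1 peptide (75 nM), then compounds added for 30 min at room temperature; AlphaScreen streptavidin donor/nickel chelate acceptor beads (10 ug/mL final) read after 30 min dark incubation.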
Potency is the fitted concentration of half-maximal effect; tags give direction and shape of the fitted curve.

| SMILES | Potency |
| --- | --- |
| O=S(=O)([N-]c1nc2ccccc2nc1-[n+]1ccc(-c2ccncc2)cc1)c1ccccc1 | inactive |
| CCOC(=O)NC(Nc1sc2c(c1C(=O)OC)CCN(C)C2)(C(F)(F)F)C(F)(F)F | inconclusive: 28.2 µM [inhibitor, partial curve] |
| Cc1nnc(NC(=O)CSCc2cc(=O)c3ccccc3[nH]2)s1 | inconclusive: 28.2 µM [inhibitor, partial curve] |
| COc1ccc(N2CCN(C(=O)CCc3c[nH]c4ccccc34)CC2)cc1 | inactive |
| CCOC(=O)/C(C#N)=C/c1cc2ccccc2nc1Cl | inactive |
| CCOc1ccc2nc(CN3CCN(Cc4ccsc4)C(CCO)C3)ccc2c1 (centres undefined) | inactive |
| CN(C)c1ccc(NC2=C(Cl)C(=O)c3ccccc3C2=O)cc1 | active: 15.8 µM |
| CC(=O)c1ccc(OC(=O)C2CSC3(C)CCC(=O)N23)cc1 (centres undefined) | inconclusive: 31.6 µM [inhibitor, single point] |
| CN1CCN(c2ccc(-c3cc(O)c4ncccc4c3)cc2)CC1 | inconclusive: 12.6 µM [inhibitor, partial curve] |
| CC(=O)c1cccc(NS(=O)(=O)c2ccc(N/C=C\C(=O)c3ccc(F)cc3)cc2)c1 | inactive |
| CC(=O)c1ccc(NC(=O)COC(=O)c2ccccc2N=Nc2ccc(N(C)C)cc2)cc1 | inconclusive: 25.1 µM [inhibitor, partial curve] |
| O=c1c2ccccc2c(C=NCc2ccccn2)c(O)n1-c1ccccc1 | inactive |
| Cn1c(CO)cnc1S(=O)(=O)Cc1ccc([N+](=O)[O-])cc1 | inconclusive: 6.31 µM [inhibitor, single point] |
| COc1cccc(N=Nc2c(=O)[nH]n3c(=O)c4c([nH]c23)CCC4)c1 | inconclusive: 28.2 µM [inhibitor, single point] |
| O=S(=O)(c1ccc(NC(=S)NCc2cccnc2)cc1)N1CCCCC1 | inconclusive: 39.8 µM [inhibitor, single point] |
| COc1cc(CC(=O)Nc2ccc3c(c2)CCC3)cc(OC)c1OC | inactive |
| COC(=O)c1cccc(/C=N/NC(N)=S)c1O | inconclusive: 17.8 µM [inhibitor, partial curve] |
| COc1ccc(-c2[nH]c(-c3ccccc3)nc2SCC(=O)Nc2nccs2)cc1 | inconclusive: 39.8 µM [inhibitor, single point] |
| N=C1/C(=C/c2coc3ccccc3c2=O)C(=O)N=C2SC(c3ccco3)=NN12 | inconclusive: 20 µM [inhibitor, single point] |
| COc1cccc(Nc2nc(N)c([N+](=O)[O-])c(NCc3ccccc3)n2)c1 | inconclusive: 31.6 µM [inhibitor, single point] |
| C/C(=C\C(=S)Nc1ccccc1)Nc1ccc2ccccc2c1 | inconclusive: 39.8 µM [inhibitor, partial curve] |
| COc1cc(OC)c(OC)cc1CN1CCCC(C(=O)c2ccccc2SC)C1 (centres undefined) | inconclusive: 28.2 µM [inhibitor, single point] |
| Cc1ncc(CO)c(/C=N/NC(=O)c2cc3c(s2)CCCC3)c1O | inconclusive: 14.1 µM [inhibitor, partial curve] |

| SMILES | Potency |
| --- | --- |
| COc1ccccc1NS(=O)(=O)c1ccc(N/N=C/c2c(C)nn(-c3ccccc3)c2N2CCCC2)c([N+](=O)[O-])c1 | inconclusive: 2.51 µM [inhibitor, full curve] |
| COC(=O)CC(NC(=O)c1cccs1)c1ccc(OC)c(OC)c1 (centres undefined) | inconclusive: 3.16 µM [inhibitor, partial curve] |
| Nc1c(C=C2C=CC(=O)C=C2)c(=O)nc2snc(SCc3ccccc3)n12 | inconclusive: 31.6 µM [inhibitor, partial curve] |
| Cc1ccccc1OCCCN1C(=O)C(=O)c2cccc(C)c21 | inconclusive: 17.8 µM [inhibitor, partial curve] |
| O=C(Nc1ccc(O)cc1)c1ccc2c(c1)C(=O)N(Cc1ccco1)C2=O | inconclusive: 31.6 µM [inhibitor, partial curve] |
| COc1cc(OC)cc(-c2c(-c3cccs3)c3cc(-c4ccc(SC)cc4)ccc3n2C)c1 | inconclusive: 39.8 µM [inhibitor, single point] |
| CN(C)c1ccc(NC(=O)CSc2nc3c(c(=O)[nH]2)CCCC3)cc1 | inconclusive: 28.2 µM [inhibitor, single point] |
| Nc1nc(CN2CCN(c3ccccn3)CC2)nc(Nc2ccc(Cl)cc2)n1 | inactive |
| O=C(COC(=O)c1cccnc1Cl)NCC1CCCO1 (centres undefined) | inconclusive: 0.708 µM [inhibitor, single point] |
| CC(C)c1nc2ccc(Br)cn2c1NC1CCCC1 | inconclusive: 15.8 µM [inhibitor, partial curve, poor fit] |
| Cc1cccc(NCc2ccc(O)c3ncccc23)c1 | inconclusive: 15.8 µM [inhibitor, partial curve] |
| Cc1ccc(-c2nc(C#N)c(N3CCCCC3)o2)cc1 | inactive |
| CCC(c1nnnn1Cc1ccccc1)N1CCN(c2ccc(OC)cc2)CC1 (centres undefined) | inactive |
| COC(=O)c1c(NC(=O)c2ccc(S(=O)(=O)N3CCOCC3)cc2)sc2c1CCN(C)C2 | inconclusive: 31.6 µM [inhibitor, single point] |
| CC(=O)c1cc2c(O)c(O)ccc2o1 | inconclusive: 14.1 µM [inhibitor, partial curve] |
| COc1cc(C(=O)OCC(=O)Nc2c(F)cccc2F)cc(OC)c1C | inconclusive: 25.1 µM [inhibitor, single point] |
| CN1c2ccsc2/C(=N/Nc2ccccc2)CS1(=O)=O | inconclusive: 0.251 µM [inhibitor, full curve, poor fit] |
| Cc1ccc(CSc2nc3nc(C)cc(C)n3n2)cc1 | inactive |
| COc1cc(CC(=O)OCC(=O)Nc2ccc(N(C)C)cc2)cc(OC)c1OC | inconclusive: 1.12 µM [inhibitor, single point] |
| CCOC(=O)/C(C#N)=C1/C=CN(Cc2ccccc2)C=N1 | inactive |
| COc1ccc(OC)c(NC(=O)NCc2ccc(F)cc2)c1 | inconclusive: 0.891 µM [inhibitor, single point] |
| COc1cc(Cl)c(C)cc1NC(=O)CSc1nnc(-c2ccccn2)n1Cc1ccco1 | inactive |
| CC(C)(C)OC(=O)N1Cc2ccccc2C[C@H]1C(=O)O | inactive |

| SMILES | Potency |
| --- | --- |
| O=C1CCC/C(=N\NC(=O)c2ccc(COc3cccc4cccnc34)cc2)C1 | inconclusive: 15.8 µM [inhibitor, partial curve] |
| CCN(CC)C(=O)Oc1ccc(Cl)c2ccccc12 | inactive |
| COc1ccc(/C=N/NC(=O)c2nn(-c3ccccc3)c(=O)c3c(N)scc23)cc1 | inconclusive: 31.6 µM [inhibitor, single point] |
| c1ccc(Nc2nc(-c3cccs3)cs2)nc1 | inactive |
| CC(C)(C)C(=O)Nc1sc2c(c1C#N)CCC2 | inconclusive: 39.8 µM [inhibitor, single point] |
| COc1ccc2c(c1)-c1c(ssc1=S)C(C)(C)N2C(=O)CSC1=NCCS1 | inconclusive: 28.2 µM [inhibitor, partial curve] |
| CC1=CC(C)(C)Nc2ccccc21 | inconclusive: 28.2 µM [inhibitor, single point] |
| COc1ccc2c(CC(=O)OCC(=O)Nc3ccccc3[N+](=O)[O-])coc2c1 | inconclusive: 15.8 µM [inhibitor, partial curve] |
| C=CCn1c(=O)/c(=C/c2ccc(C)o2)s/c1=C(/C#N)C(=O)c1ccccc1 | inconclusive: 14.1 µM [inhibitor, partial curve] |
| CCOC(=O)N1CCN(S(=O)(=O)c2ccc(C(=O)NNc3nc4ccc(Cl)cc4s3)cc2)CC1 | inactive |
| CC(/C=C\c1cccnc1)=C/C(=O)O | active: 28.2 µM |
| Oc1ccccc1C(Nc1nccs1)c1ccc2cccnc2c1O (centres undefined) | inconclusive: 35.5 µM [inhibitor, partial curve] |
| COC(=O)CC1=NN(c2ccccc2)C(=O)C1 | inconclusive: 0.447 µM [inhibitor, full curve] |
| CCOC(=O)c1c(C)[nH]c(C)c1C(=O)COC(=O)CSc1ccc(C)cc1 | inconclusive: 1.41 µM [inhibitor, single point] |
| CCN(CCNc1ccc(Cl)cc1[N+](=O)[O-])C(=O)c1cc([N+](=O)[O-])c(N(C)C)cc1OC | inconclusive: 6.31 µM [inhibitor, single point] |
| CCCC(=O)NC1C2CC3CC(C2)CC1C3 (centres undefined) | inconclusive: 3.98 µM [inhibitor, single point] |
| O=c1cc(/N=C/c2coc3c(ccc4ccccc43)c2=O)[nH]c(=S)[nH]1 | inactive |
| C#CCOCCOCCOCCNc1nc(N2CCN(C(=O)[C@H](CCC(=O)O)n3cc([C@@H](N)CC(N)=O)nn3)CC2)nc(N2CCN(C(=O)[C@H](CCC(=O)O)n3cc([C@@H](N)CC(N)=O)nn3)CC2)n1 | inconclusive: 25.1 µM [inhibitor, single point] |
| Nc1ccc(N2CCN(CCCCN3C(=O)C4CCCN4C3=O)CC2)cc1 (centres undefined) | inactive |
| COc1cc([N+](=O)[O-])cc(/C=N/NC(=O)Cn2nc(C)cc2C)c1O | inconclusive: 31.6 µM [inhibitor, single point] |
| CCN(CCCNC(=O)C1c2ccccc2C(=O)N(CCOC)C1c1ccc(F)cc1)Cc1ccccc1 (centres undefined) | inconclusive: 1.58 µM [inhibitor, full curve, poor fit] |
| O=C(COC(=O)c1ccc([N+](=O)[O-])s1)NC(=O)NCc1ccccc1 | active: 11.2 µM |
| CS(=O)(=O)c1ccc2nc(NC(=O)Nc3ccc(Cl)c(Cl)c3)sc2c1 | inactive |
